# The supplement of paper PMC8728848
# The other results are listed elsewhere or left out.
# B1: Gal 8 (Mus musculus), Q9JL15 (protein)
# chain: MGGSHHHHHHGMASMLSLNNLQNIIYNPIIPYVGTITEQLKPGSLIVIRGHVPKDSERFQVDFQLGNSLKPRADVAFHFNPRFKRSSCIVCNTLTQEKWGWEEITYDMPFRKEKSFEIVFMVLKNKFQVAVNGRHVLLYAHRISPEQIDTVGIYGKVNIHSIGFRFSSASALPHTLGDLQSMETSALGLTQINRENIQKPGKLQLSLPFEARLNASMGPGRTVVIKGEVNTNARSFNVDLVAGKTRDIALHLNPRLNVKAFVRNSFLQDAWGEEERNITCFPFSSGMYFEMIIYCDVREFKVAINGVHSLEYKHRFKDLSSIDTLSVDGDIRLLDVRSW
# Assays:
# Experiment in all cases: glycan array binding signal (z-score within array); higher = stronger binding
# Conditions in all cases: glycan notation: IUPAC condensed, linker removed
# [1] = target: Gal6S(b1-4)Glc
# Method in brief: (§1)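 Arrays were curated from the Consortium for Functional Glycomics database, 3228 in total, and kept only where the protein sequence was available. Binding is expressed as a within-array Z-score. This score was averaged across arrays of the same protein sequence at different concentrations or buffers and across linkers, and negative values can be read as non-binding.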
# [2] = target: Gal6S(b1-4)Glc6S
# Method in brief: as §1
# [3] = target: Gal6S(b1-4)GlcNAc
# Method in brief: as §1
# [4] = target: Gal6S(b1-4)GlcNAc6S
# Method in brief: as §1
# [5] = target: GalNAc(a1-3)Gal
# Method in brief: as §1
# [6] = target: GalNAc(a1-3)GalNAc
# Method in brief: as §1
# [7] = target: GalNAc(a1-3)GalNAc(b1-3)Gal(a1-4)Gal(b1-4)Glc
# Method in brief: as §1
# [8] = target: GalNAc(a1-3)GalNAc(b1-3)Gal(a1-4)Gal(b1-4)GlcNAc
# Method in brief: as §1
# [9] = target: GalNAc(b1-3)Gal
# Method in brief: as §1
# [10] = target: GalNAc(b1-3)Gal(a1-4)Gal(b1-4)GlcNAc
# Method in brief: as §1
# [11] = target: GalNAc(b1-3)Gal(a1-4)Gal(b1-4)GlcNAc(b1-3)Gal(b1-4)Glc
# Method in brief: as §1
# [12] = target: GalNAc(b1-3)Gal(a1-6)Gal(b1-4)Glc
# Method in brief: as §1
# [13] = target: GalNAc(b1-3)GalNAc
# Method in brief: as §1
# [14] = target: GalNAc(b1-3)GlcNAc
# Method in brief: as §1
# [15] = target: GalNAc(b1-4)Gal(b1-4)Glc
# Method in brief: as §1
# [16] = target: GalNAc(b1-4)GlcNAc
# Method in brief: as §1
# [17] = target: GalNAc(b1-4)GlcNAc(b1-2)Man
# Method in brief: as §1
# [18] = target: GalNAc(b1-4)GlcNAc(b1-2)Man(a1-3)[GalNAc(b1-4)GlcNAc(b1-2)Man(a1-6)]Man(b1-4)GlcNAc(b1-4)GlcNAc
# Method in brief: as §1
# [19] = target: GalNAc(b1-4)GlcNAc(b1-3)GalNAc(b1-4)GlcNAc
# Method in brief: as §1
# [20] = target: GalNAc(b1-4)GlcNAc6S
# Method in brief: as §1
# [21] = target: GalNAc(b1-6)GalNAc
# Method in brief: as §1
# [22] = target: GalNAc3S(b1-4)GlcNAc
# Method in brief: as §1
# [23] = target: GalNAc3S(b1-4)GlcNAc3S
# Method in brief: as §1
# [24] = target: GalNAc3S(b1-4)[Fuc(a1-3)]GlcNAc
# Method in brief: as §1
# [25] = target: GalNAc4S6S(b1-4)GlcNAc
# Method in brief: as §1
# [26] = target: GalNAc6S(b1-4)GlcNAc
# Method in brief: as §1
# [27] = target: Glc(a1-4)Glc
# Method in brief: as §1
# [28] = target: Glc(a1-4)Glc(a1-4)Glc(a1-4)Glc
# Method in brief: as §1
# [29] = target: Glc(a1-6)Glc(a1-6)Glc
# Method in brief: as §1
# [30] = target: Glc(a1-6)Glc(a1-6)Glc(a1-6)Glc
# Method in brief: as §1
# [31] = target: Glc(b1-4)Glc
# Method in brief: as §1
# [32] = target: Glc(b1-6)Glc
# Method in brief: as §1
# [33] = target: GlcA(b1-3)Gal
# Method in brief: as §1
# [34] = target: GlcA(b1-3)GlcNAc
# Method in brief: as §1
# [35] = target: GlcA(b1-6)Gal
# Method in brief: as §1
# [36] = target: GlcA3S(b1-3)Gal(b1-4)GlcNAc(b1-2)Man
# Method in brief: as §1
# [37] = target: GlcA3S(b1-3)Gal(b1-4)GlcNAc(b1-3)Gal(b1-4)Glc
# Method in brief: as §1
# [38] = target: GlcNAc(a1-3)Gal(b1-4)GlcNAc
# Method in brief: as §1
# [39] = target: GlcNAc(a1-4)Gal(b1-3)GlcNAc
# Method in brief: as §1
# [40] = target: GlcNAc(a1-4)Gal(b1-4)GalNAc
# Method in brief: as §1
# [41] = target: GlcNAc(a1-4)Gal(b1-4)GlcNAc
# Method in brief: as §1
# [42] = target: GlcNAc(a1-4)Gal(b1-4)GlcNAc(b1-3)Gal(b1-4)Glc
# Method in brief: as §1
# [43] = target: GlcNAc(a1-4)Gal(b1-4)GlcNAc(b1-3)Gal(b1-4)GlcNAc
# Method in brief: as §1
# [44] = target: GlcNAc(a1-4)Gal(b1-4)GlcNAc(b1-3)Gal(b1-4)GlcNAc(b1-3)Gal(b1-4)GlcNAc
# Method in brief: as §1
# [45] = target: GlcNAc(a1-4)Gal(b1-4)GlcNAc(b1-3)Gal(b1-4)[Fuc(a1-3)]GlcNAc(b1-3)Gal(b1-4)[Fuc(a1-3)]GlcNAc
# Method in brief: as §1
binder,measurement,setting,value
B1,glycan array binding signal (z-score),[1],-0.532
same,glycan array binding signal (z-score),[2],-0.51
same,glycan array binding signal (z-score),[3],-0.546
same,glycan array binding signal (z-score),[4],-0.536
same,glycan array binding signal (z-score),[5],-0.532
same,glycan array binding signal (z-score),[6],-0.497
same,glycan array binding signal (z-score),[7],0.576
same,glycan array binding signal (z-score),[8],0.226
same,glycan array binding signal (z-score),[9],0.154
same,glycan array binding signal (z-score),[10],-0.272
same,glycan array binding signal (z-score),[11],0.139
same,glycan array binding signal (z-score),[12],-0.197
same,glycan array binding signal (z-score),[13],-0.54
same,glycan array binding signal (z-score),[14],0.185
same,glycan array binding signal (z-score),[15],-0.515
same,glycan array binding signal (z-score),[16],-0.238
same,glycan array binding signal (z-score),[17],0.201
same,glycan array binding signal (z-score),[18],-0.195
same,glycan array binding signal (z-score),[19],0.148
same,glycan array binding signal (z-score),[20],0.02
same,glycan array binding signal (z-score),[21],-0.491
same,glycan array binding signal (z-score),[22],-0.4
same,glycan array binding signal (z-score),[23],-0.531
same,glycan array binding signal (z-score),[24],-0.526
same,glycan array binding signal (z-score),[25],-0.514
same,glycan array binding signal (z-score),[26],-0.538
same,glycan array binding signal (z-score),[27],-0.53
same,glycan array binding signal (z-score),[28],-0.531
same,glycan array binding signal (z-score),[29],-0.539
same,glycan array binding signal (z-score),[30],-0.529
same,glycan array binding signal (z-score),[31],-0.54
same,glycan array binding signal (z-score),[32],-0.539
same,glycan array binding signal (z-score),[33],-0.537
same,glycan array binding signal (z-score),[34],-0.553
same,glycan array binding signal (z-score),[35],-0.51
same,glycan array binding signal (z-score),[36],-0.544
same,glycan array binding signal (z-score),[37],-0.425
same,glycan array binding signal (z-score),[38],0.05
same,glycan array binding signal (z-score),[39],-0.53
same,glycan array binding signal (z-score),[40],-0.501
same,glycan array binding signal (z-score),[41],-0.526
same,glycan array binding signal (z-score),[42],0.212
same,glycan array binding signal (z-score),[43],0.045
same,glycan array binding signal (z-score),[44],0.958
same,glycan array binding signal (z-score),[45],-0.375
